{"source": "the supplement of paper PMC8728848", "binders": {"B1": {"name": "PVL (Psathyrella velutina), Q309D1_9AGAR (protein)", "chain": "MSVVVISQALPVPTRIPGVADLVGFGNGGVYIIRNSLLIQVVKVINNFGYDAGGWRVEKHVRLLADTTGDNQPDVVGFGENGVWISTNNGNNTFVDPPKMVLANFAYAAGGWRVEKHIRFMADLRKTGRADIVGFGDGGIYISRNNGGGQFAPAQLALNNFGYAQGWRLDRHLRFLADVTGDGLLDVVGFGENQVYIARNSGNGTFQPAQAVVNNFCIGAGGWTISAHPRVVADLTGDRKADILGFGVAGVYTSLNNGNGTFGAVNLVLKDFGVNSGWRVEKHVRCVSSLTNKKVGDIIGFGDAGVYVALNNGNGTFGPVKRVIDNFGYNQGWRVDKHPRFVVDLTGDGCADIVGFGENSVWACMNKGDGTFGPIMKLIDDMTVSKGWTLQKTVRYAANLYL"}}, "assay_in_all_cases": "glycan array binding signal (z-score within array); higher = stronger binding", "conditions_in_all_cases": "glycan notation: IUPAC condensed, linker removed", "key": {"[1]": {"target": "Neu5Ac(a2-6)Gal(b1-4)GlcNAc(b1-2)Man(a1-3)[Man(a1-6)]Man(b1-4)GlcNAc(b1-4)GlcNAc", "how_it_was_run": "(§1)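 Glycan array data were curated from 3228 arrays in the Consortium for Functional Glycomics database and kept only where the protein sequence was available. Glycan names were converted to IUPAC-condensed notation, and columns mapping to the same glycan were averaged. The binding signal is a within-array Z-score, averaged across arrays of the same protein sequence at different concentrations or buffers and across linkers. Negative Z-scores can be read as non-binding.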"}, "[2]": {"target": "Neu5Ac(a2-6)Gal(b1-4)GlcNAc(b1-2)Man(a1-3)[Neu5Ac(a2-3)Gal(b1-4)GlcNAc(b1-2)Man(a1-6)]Man(b1-4)GlcNAc(b1-4)GlcNAc", "how_it_was_run": "as §1"}, "[3]": {"target": "Neu5Ac(a2-6)Gal(b1-4)GlcNAc(b1-2)Man(a1-3)[Neu5Ac(a2-6)Gal(b1-4)GlcNAc(b1-2)Man(a1-6)]Man(b1-4)GlcNAc(b1-4)GlcNAc", "how_it_was_run": "as §1"}, "[4]": {"target": "Neu5Ac(a2-6)Gal(b1-4)GlcNAc(b1-2)Man(a1-3)[Neu5Ac(a2-6)Gal(b1-4)GlcNAc(b1-2)Man(a1-6)]Man(b1-4)GlcNAc(b1-4)[Fuc(a1-6)]GlcNAc", "how_it_was_run": "as §1"}, "[5]": {"target": "Neu5Ac(a2-6)Gal(b1-4)GlcNAc(b1-2)Man(a1-6)Man(b1-4)GlcNAc(b1-4)GlcNAc", "how_it_was_run": "as §1"}, "[6]": {"target": "Neu5Ac(a2-6)Gal(b1-4)GlcNAc(b1-2)Man(a1-6)[Gal(b1-4)GlcNAc(b1-2)Man(a1-3)]Man(b1-4)GlcNAc(b1-4)GlcNAc", "how_it_was_run": "as §1"}, "[7]": {"target": "Neu5Ac(a2-6)Gal(b1-4)GlcNAc(b1-2)Man(a1-6)[GlcNAc(b1-2)Man(a1-3)]Man(b1-4)GlcNAc(b1-4)GlcNAc", "how_it_was_run": "as §1"}, "[8]": {"target": "Neu5Ac(a2-6)Gal(b1-4)GlcNAc(b1-2)Man(a1-6)[Man(a1-3)]Man(b1-4)GlcNAc(b1-4)GlcNAc", "how_it_was_run": "as §1"}, "[9]": {"target": "Neu5Ac(a2-6)Gal(b1-4)GlcNAc(b1-2)[Neu5Ac(a2-6)Gal(b1-4)GlcNAc(b1-4)]Man(a1-3)[GlcNAc(b1-4)][Neu5Ac(a2-6)Gal(b1-4)GlcNAc(b1-2)[Neu5Ac(a2-6)Gal(b1-4)GlcNAc(b1-6)]Man(a1-6)]Man(b1-4)GlcNAc(b1-4)GlcNAc", "how_it_was_run": "as §1"}, "[10]": {"target": "Neu5Ac(a2-6)Gal(b1-4)GlcNAc(b1-2)[Neu5Ac(a2-6)Gal(b1-4)GlcNAc(b1-4)]Man(a1-3)[GlcNAc(b1-4)][Neu5Ac(a2-6)Gal(b1-4)GlcNAc(b1-4)Man(a1-6)]Man(b1-4)GlcNAc(b1-4)GlcNAc", "how_it_was_run": "as §1"}, "[11]": {"target": "Neu5Ac(a2-6)Gal(b1-4)GlcNAc(b1-2)[Neu5Ac(a2-6)Gal(b1-4)GlcNAc(b1-6)]Man(a1-6)[Neu5Ac(a2-6)Gal(b1-4)GlcNAc(b1-2)Man(a1-3)][GlcNAc(b1-4)]Man(b1-4)GlcNAc(b1-4)GlcNAc", "how_it_was_run": "as §1"}, "[12]": {"target": "Neu5Ac(a2-6)Gal(b1-4)GlcNAc(b1-3)Gal(b1-3)GlcNAc", "how_it_was_run": "as §1"}, "[13]": {"target": "Neu5Ac(a2-6)Gal(b1-4)GlcNAc(b1-3)Gal(b1-4)GlcNAc", "how_it_was_run": "as §1"}, "[14]": {"target": "Neu5Ac(a2-6)Gal(b1-4)GlcNAc(b1-3)Gal(b1-4)GlcNAc(b1-2)Man(a1-3)[Neu5Ac(a2-6)Gal(b1-4)GlcNAc(b1-3)Gal(b1-4)GlcNAc(b1-2)Man(a1-6)]GalNAc", "how_it_was_run": "as §1"}, "[15]": {"target": "Neu5Ac(a2-6)Gal(b1-4)GlcNAc(b1-3)Gal(b1-4)GlcNAc(b1-3)Gal(b1-4)GlcNAc", "how_it_was_run": "as §1"}, "[16]": {"target": "Neu5Ac(a2-6)Gal(b1-4)GlcNAc(b1-3)Gal(b1-4)GlcNAc(b1-3)Gal(b1-4)GlcNAc(b1-2)Man(a1-3)[Neu5Ac(a2-6)Gal(b1-4)GlcNAc(b1-3)Gal(b1-4)GlcNAc(b1-3)Gal(b1-4)GlcNAc(b1-2)Man(a1-6)]GalNAc", "how_it_was_run": "as §1"}, "[17]": {"target": "Neu5Ac(a2-6)Gal(b1-4)GlcNAc(b1-3)Gal(b1-4)GlcNAc(b1-3)GalNAc", "how_it_was_run": "as §1"}, "[18]": {"target": "Neu5Ac(a2-6)Gal(b1-4)GlcNAc(b1-3)Gal(b1-4)GlcNAc(b1-3)[Neu5Ac(a2-6)Gal(b1-4)GlcNAc(b1-3)Gal(b1-4)GlcNAc(b1-6)]GalNAc", "how_it_was_run": "as §1"}, "[19]": {"target": "Neu5Ac(a2-6)Gal(b1-4)GlcNAc(b1-3)Gal(b1-4)GlcNAc(b1-6)[Gal(b1-3)]GalNAc", "how_it_was_run": "as §1"}, "[20]": {"target": "Neu5Ac(a2-6)Gal(b1-4)GlcNAc(b1-3)Gal(b1-4)[Fuc(a1-3)]GlcNAc(b1-3)Gal(b1-4)[Fuc(a1-3)]GlcNAc", "how_it_was_run": "as §1"}, "[21]": {"target": "Neu5Ac(a2-6)Gal(b1-4)GlcNAc(b1-3)GalNAc", "how_it_was_run": "as §1"}, "[22]": {"target": "Neu5Ac(a2-6)Gal(b1-4)GlcNAc(b1-3)[Neu5Ac(a2-6)Gal(b1-4)GlcNAc(b1-6)]GalNAc", "how_it_was_run": "as §1"}, "[23]": {"target": "Neu5Ac(a2-6)Gal(b1-4)GlcNAc(b1-6)GalNAc", "how_it_was_run": "as §1"}, "[24]": {"target": "Neu5Ac(a2-6)Gal(b1-4)GlcNAc(b1-6)[Gal(b1-3)GlcNAc(b1-3)]Gal(b1-4)Glc", "how_it_was_run": "as §1"}, "[25]": {"target": "Neu5Ac(a2-6)Gal(b1-4)GlcNAc(b1-6)[Gal(b1-3)]GalNAc", "how_it_was_run": "as §1"}, "[26]": {"target": "Neu5Ac(a2-6)Gal(b1-4)GlcNAc6S", "how_it_was_run": "as §1"}, "Neu5Ac(a2-6)GalNAc": {"target": "Neu5Ac(a2-6)GalNAc", "how_it_was_run": "as §1"}, "[27]": {"target": "Neu5Ac(a2-6)GalNAc(b1-4)GlcNAc", "how_it_was_run": "as §1"}, "[28]": {"target": "Neu5Ac(a2-6)GalNAc(b1-4)GlcNAc6S", "how_it_was_run": "as §1"}, "[29]": {"target": "Neu5Ac(a2-6)GlcNAc(b1-4)GlcNAc", "how_it_was_run": "as §1"}, "[30]": {"target": "Neu5Ac(a2-6)GlcNAc(b1-4)GlcNAc(b1-4)GlcNAc", "how_it_was_run": "as §1"}}, "note": "This is one part of the list.", "data": [{"binder": "B1", "values": [{"measurement": "glycan array binding signal (z-score)", "setting": "[1]", "result": -0.349}, {"measurement": "glycan array binding signal (z-score)", "setting": "[2]", "result": -0.264}, {"measurement": "glycan array binding signal (z-score)", "setting": "[3]", "result": -0.173}, {"measurement": "glycan array binding signal (z-score)", "setting": "[4]", "result": -0.139}, {"measurement": "glycan array binding signal (z-score)", "setting": "[5]", "result": -0.345}, {"measurement": "glycan array binding signal (z-score)", "setting": "[6]", "result": -0.327}, {"measurement": "glycan array binding signal (z-score)", "setting": "[7]", "result": 0.631}, {"measurement": "glycan array binding signal (z-score)", "setting": "[8]", "result": -0.345}, {"measurement": "glycan array binding signal (z-score)", "setting": "[9]", "result": -0.342}, {"measurement": "glycan array binding signal (z-score)", "setting": "[10]", "result": -0.345}, {"measurement": "glycan array binding signal (z-score)", "setting": "[11]", "result": -0.358}, {"measurement": "glycan array binding signal (z-score)", "setting": "[12]", "result": -0.297}, {"measurement": "glycan array binding signal (z-score)", "setting": "[13]", "result": 0.179}, {"measurement": "glycan array binding signal (z-score)", "setting": "[14]", "result": -0.116}, {"measurement": "glycan array binding signal (z-score)", "setting": "[15]", "result": 0.208}, {"measurement": "glycan array binding signal (z-score)", "setting": "[16]", "result": 0.259}, {"measurement": "glycan array binding signal (z-score)", "setting": "[17]", "result": -0.351}, {"measurement": "glycan array binding signal (z-score)", "setting": "[18]", "result": -0.064}, {"measurement": "glycan array binding signal (z-score)", "setting": "[19]", "result": -0.251}, {"measurement": "glycan array binding signal (z-score)", "setting": "[20]", "result": -0.396}, {"measurement": "glycan array binding signal (z-score)", "setting": "[21]", "result": -0.353}, {"measurement": "glycan array binding signal (z-score)", "setting": "[22]", "result": -0.06}, {"measurement": "glycan array binding signal (z-score)", "setting": "[23]", "result": -0.362}, {"measurement": "glycan array binding signal (z-score)", "setting": "[24]", "result": -0.361}, {"measurement": "glycan array binding signal (z-score)", "setting": "[25]", "result": -0.355}, {"measurement": "glycan array binding signal (z-score)", "setting": "[26]", "result": -0.314}, {"measurement": "glycan array binding signal (z-score)", "setting": "Neu5Ac(a2-6)GalNAc", "result": -0.168}, {"measurement": "glycan array binding signal (z-score)", "setting": "[27]", "result": -0.306}, {"measurement": "glycan array binding signal (z-score)", "setting": "[28]", "result": -0.368}, {"measurement": "glycan array binding signal (z-score)", "setting": "[29]", "result": 1.12}, {"measurement": "glycan array binding signal (z-score)", "setting": "[30]", "result": 0.469}]}]}
